Source: a collection of fitness landscapes (doi:10.1016/j.celrep.2020.107928)
The full ranking holds about 81,000 sequences; the median of “one-hybrid fitness for binding NBS DNA” is about -0.1, and the highest 2% start at about 0.36. The list shows a part of the results.

B1: Caulobacter ParB omega fusion; a variant is named by its letters at X, in order, B8GW30 (parent)
chain: MESVVVGEPGMSEGRRGLGRGLSALLGEVDAAPAQAPGEQLGGSREAPIEILQRNPDQPRRTFREEDLEDLSNSIREKGVLQPILVRPSPDTAGEYQIVAGERAWRAAQRAGLKTVPIMVRELDDLAVLEIGIIENVQRADLNVLEEALSYKVLMEKFERTQENIAQTIGKSXSHVANXMRLLXLPDEVQSYLVSGELTAXHARAIAAAADPVALAKQIIEGGLSVRETEALARKAPNLSAGKSKGGRPPRVKDTDTQALESDLSSVLGLDVSIDHRGSTGTLTITYATLEQLDDLCNRLTRGI

Variants of: B1
Assay: one-hybrid fitness for binding NBS DNA (the Noc-binding site; scaled: cognate 1, non-cognate 0); higher = stronger binding
Settings: with NBS DNA site
Method in brief: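 Values were rescaled so that cognate is 1 and non-cognate is 0. Each is a fitness, the log change in a variant's read ratio to wild type from Illumina reads of plasmids before and after selection, with three replicate libraries pooled and variants under 10 reads dropped. Selection of the Caulobacter ParB libraries, four specificity codons randomised, used E. coli USO with a HIS3 reporter, site 19 bp from the promoter, on M9-minus-histidine with 0.1 mM IPTG and 5 mM 3-AT for 48 hours at 37°C.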

one-hybrid fitness for binding NBS DNA, ≤ 0.2:
DKRS
LMGY
RFVV
KSNW
CMIR
YYWF
DAWY
CIPS
DTTK
VAYL
KGFW
PHIT
AKKW
TAVL
RVKK
QHTI
CLCW
GHRY
CEKV
HTYD
VRVS
HLYT
MASD
NYCV
SPLG
QYGW
NCNI
LTPC
GTST
SSCT
GWNV
AAMP
KTVC
EEGG
CDLE
GIQG
IVKT
MSMV
QMTW
RLHA
PCHR
TRKI
TEPM
THRY
DPYC
TEDF
CPDH
VILL
LKRY
ARQK
RCSI
VNDG
RVWK
PRFF
NTIG
RTPC
WKRF
VFDR
EMRI
QIPP
NDMA
QMPP
YKYL
SSYC
NIKR
AEDG
WSNE
WMLT
CAVR
PPMI
LFDR
LGGF
HNHT
SINY
YHQS
QCSV
IRNQ
IVES
EQPV
KKNC
RNRG
VNCV
GYWS
PHTT
RGLH
WTTV
RFQP
VENT
AFNV
CGQS
LITV
SVVS
SGYI
HFVL
YLWS
RGGN
CRHL
PKYC
KATC
AEKN
GFCR
RECT
HINQ
EMGT
QTPP
YGIS
DVAE
ATMV
RHKD
VRVH
ETQC
IGSA
TRQH
LSFE
SRDY
YVWS
YAHY
PKHV
KPSV
QCCM
WIPG
TRVN
GDGS
DTNC
RIAY
TDHT
CPMN
YINH
KWPI
SPEL
VVMC
EDNS
IVLT
YVHA
SPRM
GSVS
THWR
GKAK
PHVK
AYLE
HQCR
ILPP
HYLC
QPAP
ASID
MPLR
VFSL
KMWR
HEIV
QNVM
KPHG
HTYV
YAPL
GWDR
RVGA
ELIS
RYRN
YDKN
TVRC
GHRK
PQFG
VALF
SRPC
KMFS
LCFS
TFLR
NHNY
NLDT
RIHW
RFRF
WYPQ
CWKT
IPER
IMRT
TAPL
YMSF
QCVM
MTYR
GQCR
SEHS
YYNN
ILVG

one-hybrid fitness for binding NBS DNA, 0.373:
QLHS

one-hybrid fitness for binding NBS DNA, 0.415:
QLLR

one-hybrid fitness for binding NBS DNA, 0.305:
QMHA

one-hybrid fitness for binding NBS DNA, 0.205:
QAQH

one-hybrid fitness for binding NBS DNA, 0.374:
VRNT

one-hybrid fitness for binding NBS DNA, 0.404:
RYYR

one-hybrid fitness for binding NBS DNA, 0.483:
QRRG

one-hybrid fitness for binding NBS DNA, 0.298:
QCVA

one-hybrid fitness for binding NBS DNA, 0.397:
QCFS

one-hybrid fitness for binding NBS DNA, 0.279:
VRTR

one-hybrid fitness for binding NBS DNA, 0.248:
QVVT

one-hybrid fitness for binding NBS DNA, 0.381:
QYVR

one-hybrid fitness for binding NBS DNA, 0.306:
MNLN
